Values joined by “and” are separate entries in the source; they are usually repeats but may differ in a detail not shown here. Equal values may be shown once. The whole screen tested about 360,000 compounds, of which about 11,000 (3.1%) were called active. Inconclusive results, whose numbers are uncertain, are shown with a selection of clear calls. The call rests on the fitted dose curve; in most records, active means well fitted inhibition curve with a large enough effect; inconclusive means small, poorly fitted or top-dose-only effect; inactive means no such curve, though single readings can be large or run the other way. No potency is given beside an inconclusive call; the fits are too rough. A structure can be active in one record and inactive in another.
Target: Schistosoma mansoni thioredoxin glutathione reductase (TGR) (UniProt Q962Y6)
Assay: qHTS Assay for the Inhibitors of Schistosoma Mansoni Peroxiredoxins; further: nearly all actives have a fitted effect of over 60% in size
Conditions: purified TGR, DTNB reduction, TNB absorbance 405 nm; activity change, negative = inhibition: at 114 µM (top of the series) unless noted
Procedure, shortened: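 TGR 20 nM + NADPH 100 uM (dispensed conc.), cpd preinc 15 min RT; start with NADPH (500 uM addition) then DTNB (15 mM addition). Kinetic TNB absorbance, 405 nm filter. Four-parameter Hill fit across titration.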
On the % scale 0 is the no-effect control and ±100 the full control effect; potency means the concentration at half of the fitted maximal effect; tags describe the fitted curve by direction and shape.

| SMILES | activity change, negative = inhibition | Potency |
| --- | --- | --- |
| CCOc1ccc(S(=O)(=O)N2CCN(C(=O)Cc3n[nH]c(=O)c4ccccc34)CC2)cc1 | inactive: 7.95% |  |
| COc1ccc(C2NC(c3ccc(OC)cc3)C(C)C(=O)C2C)cc1 (stereo unspecified) | inactive: -3.66% |  |
| C(=C\c1ccco1)/C=N/n1cnnc1 |  | active: 28.2 µM |
| CC(=O)NC(c1cccs1)c1cc(F)c2cccnc2c1O (stereo unspecified) |  | active: 50.1 µM |
| CCOC(=O)N1CCN(C(=O)c2ccc(CS(=O)(=O)c3ccc(OC)cc3)o2)CC1 |  | inconclusive [inhibitor, partial curve] |
| COc1ccc(-c2nnc(SC(C)C(=O)NCc3ccc4c(c3)OCO4)n2Cc2ccco2)cc1 (stereo unspecified) |  | inconclusive [inhibitor, partial curve] |
| COCCCNC(=O)/C=C/c1cccc(Cl)c1 |  | inconclusive [inhibitor, full curve, poor fit] |
| Cn1c(CCN2CCN(c3ccccn3)CC2)nc2cc(NC(=O)COc3ccc(Cl)cc3)ccc21 | inactive: -3.28% |  |
| O=C(OCc1nnc(-c2ccc([N+](=O)[O-])cc2)o1)C1CC(=O)N(CCc2ccccc2)C1 (stereo unspecified) |  | active: 89.1 µM |
| Cc1cc(OCC(=O)Nc2ccccc2C)no1 |  | inconclusive [inhibitor, partial curve] |
| S=C(Nc1ccc(N2CCOCC2)cc1)Nc1ccc2nc(-c3ccco3)c(-c3ccco3)nc2c1 |  | inconclusive [inhibitor, partial curve] |
| CCNC(=S)Nc1cccc(NC(=O)c2ccccc2O)c1 |  | inconclusive [inhibitor, partial curve, poor fit] |
| O=c1cc(CO)oc(C(Nc2ccccn2)c2ccsc2)c1O (stereo unspecified) |  | active: 11.2 µM |
| CCC(C)NC(=O)c1ccc2c(c1)S(=O)(=O)c1ccccc1C2=O (stereo unspecified) |  | active: 17.8 µM |
| Cc1ccc(OCC(=O)N/N=C/C=C/c2ccco2)cc1 |  | inconclusive [inhibitor, full curve, poor fit] |
| O=C(NC1CCCCC1)c1ccc(CS(=O)(=O)Cc2ccccc2F)o1 |  | inconclusive [inhibitor, full curve, poor fit] |
| Cc1cc(SCC(=O)c2cccc([N+](=O)[O-])c2)nc(=O)[nH]1 |  | inconclusive [inhibitor, full curve] |
| CCOc1ccc(CNC(=O)c2cnc3sc(N(CC)CC)nn3c2=O)cc1OC | inactive: 4.12% |  |
| Brc1ccc(CSc2ccc(-c3ccco3)nn2)cc1 |  | active: 17.8 µM |
| CCc1nc2cccnc2n1-c1ccc(CC(=O)Nc2ccc(C)cc2)cc1 | inactive: -11.8% |  |
| CCCn1c(CCC(=O)Nc2cc(Cl)c(OC)cc2OC)nc2cccnc21 | inactive: -3.05% |  |
| O=C1C=C(NC2=CC3OC(c4ccccc4)OCC3OC2=O)CCC1 (stereo unspecified) |  | active: 25.1 µM |
| N#Cc1ccccc1OCC(=O)OCC(=O)c1ccc2c(c1)NC(=O)CO2 |  | inconclusive [inhibitor, single point] |
| N#C/C(=C/c1cn(-c2ccccc2)nc1-c1cccc(S(=O)(=O)N2CCCC2)c1)C(=O)NCc1ccco1 |  | inconclusive [inhibitor, partial curve] |
| CCc1ccc(CSc2nc(-c3ccc(OC)cc3)nc3c2Cc2c(CO)cnc(C)c2O3)cc1 | inactive: -13.1% |  |
| CCOc1cc(/C=C(\C#N)C(=O)Nc2ccc(S(N)(=O)=O)cc2)ccc1OCCN1CCOCC1 |  | inconclusive [inhibitor, full curve, poor fit] |

| SMILES | activity change, negative = inhibition | Potency |
| --- | --- | --- |
| Cc1cccc(/C(N)=N/OC(=O)c2cccnc2)c1 | inactive: 45.7% |  |
| O=C(Nc1ccnn1C1CCN(C(=O)c2ccc(F)c(Cl)c2)CC1)C1CC1 | inactive: -0.306% |  |
| CCCOc1ccc(NC(=O)CC2C(=O)N(C)C(=S)N2Cc2cccs2)cc1 (stereo unspecified) | inactive: -12.7% |  |
| Cc1ccc(CCNC(=O)Cn2cccc2)cc1 |  | active: 50.1 µM |
| O=C1NC(=S)NC(=O)C12C(c1ccc(F)cc1)NC(=S)NC2c1ccc(F)cc1 (stereo unspecified) |  | inconclusive [inhibitor, full curve] |
| COc1ccc(CN(C)C(=O)C2CCN(C(=O)Nc3ccccc3)CC2)cc1 | inactive: -1.33% |  |
| CN1CC(=O)N(CC(=O)N2N=C(c3ccc(Cl)cc3)CC2c2ccco2)C1=O (stereo unspecified) |  | active: 22.4 µM |
| O=C(O)c1ccccc1/C=N/NC(=O)c1cc(-c2ccco2)nc2ccccc12 |  | active: 3.16 µM |
| Cc1cccc2c1-c1sc(C(=O)Nc3nccs3)cc1CO2 | inactive: -1.49% |  |
| Cc1ccc(F)c(CNC(=O)C2CCC(=O)N(CCCN3CCCC3=O)C2)c1F (stereo unspecified) | inactive: 1.07% |  |
| Cc1[nH][nH]c(=O)c1[C@@H](c1ccccc1[N+](=O)[O-])C(C#N)C#N |  | inconclusive [inhibitor, full curve, poor fit] |
| O=C(Nc1ccc2oc(-c3cccnc3)nc2c1)c1ccc(-c2ccc(Cl)cc2)o1 |  | active: 31.6 µM |
| Cc1cc([N+](=O)[O-])ccc1NC(=S)NC(=O)Cc1ccccc1 |  | inconclusive [inhibitor, partial curve] |
| NC(=O)CS(=O)C(c1ccccc1)c1ccccc1 (stereo unspecified) |  | inconclusive [inhibitor, single point] |
| CCCCCCc1ccc(OC(=O)c2ccncc2)cc1 |  | inconclusive [inhibitor, single point] |
| COc1cc(NCCCC(C)N)c2ncccc2c1 (stereo unspecified) |  | active: 35.5 µM |
| CC(Sc1ccccc1)C(=O)NCCc1ccccc1 (stereo unspecified) | inactive: -3.52% |  |
| COc1ccc(-c2ccc3c(c2)S(=O)(=O)c2cccc(C(=O)NC4CC4)c2C3=O)cc1OC |  | inconclusive [inhibitor, full curve] |
| Cc1ccc(CSc2ccc(-c3ccco3)nn2)cc1 |  | inconclusive [inhibitor, partial curve] |
| Cc1ccccc1NC(=O)N1CCCC(c2nc(-c3ccc(C(C)C)cc3)no2)C1 (stereo unspecified) | inactive: -1.66% |  |
| Cc1cc(C)cc(OCC(=O)N(Cc2ccco2)c2c(N)n(Cc3ccccc3)c(=O)[nH]c2=O)c1 |  | inconclusive [inhibitor, partial curve] |
| CC(C)Cn1nc(NC(=O)c2ccco2)c2cc3ccccc3nc21 |  | active: 50.1 µM |
| COC(=O)c1ccc2nc(Nc3nc4ccc(F)cc4s3)sc2c1 | inactive: -3.73% |  |
| C[C@@H]1C=CC(=O)O[C@@H]1c1ccc(Cl)cc1 | inactive: -21.9% |  |
| COc1ccc(OCc2cc(C(=O)N3CCCCCC3)no2)c(Cl)c1 | inactive: -5.26% |  |
| CC(=O)Nc1ccc(NC(=O)CSc2ccc(-c3ccc(-n4ccnc4)cc3)nn2)cc1 | inactive: -16.9% |  |

| SMILES | activity change, negative = inhibition | Potency |
| --- | --- | --- |
| CC(=O)Nc1ccccc1-c1nc2cc(C#N)c(C#N)cc2[nH]c1=O |  | inconclusive [inhibitor, single point] |
| O=C(COC(=O)c1ccccc1O)Nc1ccc(OC(F)F)cc1 |  | inconclusive [inhibitor, partial curve] |
| O=C(NCCN1CCCCCC1)c1ccc(CS(=O)(=O)c2ccc(Br)cc2)o1 |  | inconclusive [inhibitor, partial curve] |
| C=CCn1c(=S)[nH]c2scc(-c3ccc(C)o3)c2c1=O |  | active: 35.5 µM |
| CC(C)(C)c1nnc2sc(SCC(=O)c3cccs3)nn2c1=O |  | inconclusive [inhibitor, full curve, poor fit] |
| COc1ccc(OC)c(NC(=O)c2ccccc2N(Cc2ccccc2)S(C)(=O)=O)c1 | inactive: -22% |  |
| CCC1=C(OC(=O)N(CC)CC)N2C(=O)OC(=NCC(=O)OC)[C@]2(Cc2ccccc2)[C@H]2C1=CC[C@H]1C(=O)N(C)C(=O)[C@H]12 |  | inconclusive [inhibitor, partial curve] |
| O=C(C1=C(O)C(=O)N(CCN2CCOCC2)C1c1cccnc1)c1cc2ccccc2o1 (stereo unspecified) |  | inconclusive [inhibitor, single point] |
| O=C(c1cc(-c2ccc(Br)cc2)on1)N1CCc2ccccc2C1 | inactive: -1.34% |  |
| O=C1CSC(c2ccccc2O)N1Cc1ccccc1 (stereo unspecified) |  | inconclusive [inhibitor, partial curve] |
| Cc1ccc2nsnc2c1N | inactive: -14.8% |  |
| COC(=O)c1cccc(-n2c(CCC(=O)O)ccc2-c2cccs2)c1 |  | active: 3.16 µM and active: 3.55 µM |
| Cc1ccc(C)c(S(=O)(=O)N2CCN(C(C(=O)Nc3ccc(F)cc3)c3ccccc3)CC2)c1 (stereo unspecified) | inactive: -17% |  |
| O=C(CCCN1C(=O)c2cccc3cccc(c23)C1=O)N1CCN(c2ccccn2)CC1 | inactive: 4.89% |  |
| Cc1cc(/C=C2/SC(=O)N(CC(=O)OC(C)C)C2=O)c(C)n1C |  | inconclusive [inhibitor, partial curve, poor fit] |
| O=c1c2c(nc3n1CCCCC3)-c1ccccc1CC21CCCCC1 | inactive: 4.84% |  |
| Cc1ccc2cc3cc(C(=O)NCc4ccco4)oc3nc2c1 |  | inconclusive [inhibitor, partial curve, poor fit] |
| Cc1cc(C)c([N+](=O)[O-])cc1-c1ccc(/C=N/NC(=O)c2nonc2N)o1 | inactive: -22.4% |  |
| OCCCc1nc2n(n1)C(c1cccs1)C=C(c1ccccc1)N2 (stereo unspecified) |  | inconclusive [inhibitor, single point] |
| Cc1ccc(-c2cc(C(=O)N/N=C/C(Br)=C/c3ccccc3)n[nH]2)o1 |  | inconclusive [inhibitor, partial curve] |
| CCOC(=O)C(=CNc1cc(C)nn1-c1ccccc1)C(=O)OCC |  | inconclusive [inhibitor, partial curve, poor fit] |
| COc1cc2nc(NCc3ccc(C)cc3)n3nc(-c4ccccc4)nc3c2cc1OC | inactive: -5.22% |  |
| COc1ccc(/C=N\NC(=O)c2cccc(Br)c2)c(OC)c1 |  | inconclusive [inhibitor, full curve] |
| S=C(c1ccc(-c2ccccc2Cl)o1)N1CCOCC1 | inactive: -0.252% |  |

— PubChem BioAssay AID485364 (National Center for Advancing Translational Sciences (NCATS), 2010)
